Results from PubChem BioAssay AID686978 (National Center for Advancing Translational Sciences (NCATS), 2013).
About 64,000 (15%) of roughly 420,000 compounds were called active. Inconclusive means that the source gave no clear call. Such entries were picked first, then a sample of the others. Calls come from the whole dose curve; as a rule, active = well fitted inhibition curve with a large enough effect; inconclusive = small, poorly fitted or top-dose-only effect; inactive = flat fitted curve, though single readings scatter. No potency is given beside an inconclusive call; the fits are too rough.

Experiment: qHTS for Inhibitors of human tyrosyl-DNA phosphodiesterase 1 (TDP1): qHTS in cells in absence of CPT; note: nearly all actives have a fitted effect of over 55% in size
Conditions: DT40 Tdp1-/- hTDP1 cells, no CPT, ATP luminescence, 48 h; series mostly up to 46.2 µM
How it was run: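 Cells were dispensed at 400 per well, compounds added by pin tool, plates incubated ≥48 hr at 37 °C, then CellTiter-Glo added for 30 min at room temperature before luminescence reading. Line: DT40 Tdp1-/- complemented with hTDP1; camptothecin omitted.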
Potency is the fitted concentration of half-maximal effect; tags give direction and shape of the fitted curve.

Row | SMILES | Potency
1 | O=C(NN=Cc1ccc(N(CCCl)CCCl)cc1Cl)c1cccnc1 | active: 23.1 µM
2 | COc1cc([C@@H]2c3cc4c(cc3[C@@H](O)[C@H]3COC(=O)[C@H]23)OCO4)cc(OC)c1O | active: 0.112 µM
3 | NC(=O)Cc1cccc(C(=O)c2ccccc2)c1N | inconclusive [inhibitor, single point]
4 | C=C1C(=O)OC2C1CCC(C)C1(O)C=CC(=O)C21C (stereo unspecified) | active: 2.31 µM
5 | CCOC(=O)C(=O)NC1CCSC1=O (stereo unspecified) | inactive
6 | O=C(Nc1cc(Cl)cc(Cl)c1)N1Cc2ccccc2-n2nncc2C1 | inconclusive [inhibitor, single point]
7 | CC(=O)c1c(O)n(C2CCCCCC2)c(=O)[nH]c1=O | inconclusive [inhibitor, single point]
8 | O=C(Cn1c(=O)n(CC2CS2)c2ccccc21)N1CCCCC1 (stereo unspecified) | inconclusive [inhibitor, single point]
9 | CS(=O)(=O)c1ccc(C2=C(CNC(=O)c3ccc([N+](=O)[O-])cc3)[C@H]3CC[C@@H](C2)N3CCOc2ccccc2)cc1 | active: 14.6 µM
10 | O=C(CCCc1ccccc1)NCCc1cnc[nH]1 | inactive
11 | Cc1ccc(-c2cc(-c3ccccc3)cc(-c3ccccc3)[n+]2-c2ccccc2)cc1 | active: 0.92 µM
12 | Cc1nc2cc(C(F)(F)F)ccc2n1C1CCN(Cc2nnnn2Cc2cccs2)CC1 | active: 16.4 µM
13 | CN1[C@@H]2CC[C@H]1CC(OC(=O)C1C=Nc3ccccc31)C2 (stereo partly specified) | inconclusive [inhibitor, single point]
14 | NNc1n[nH]c(=S)n1N | inconclusive [inhibitor, single point]
15 | CN/C=C(/Cl)P(=O)(OC(C)C)OC(C)C | inactive
16 | Nc1ccc(S(=O)(=O)N2CC3CC(C2)c2cccc(=O)n2C3)cc1 (stereo unspecified) | inactive
17 | Cc1ccc2c(c1)=C/C(=C\c1c(O)[nH]c(=O)[nH]c1=O)C(=O)N=2 | inconclusive [inhibitor, single point]
18 | N=c1sccn1Cc1ccc(Cl)cc1Cl | inconclusive [inhibitor, partial curve]
19 | CCCCCc1nc2ccccc2c(=O)n1-c1ccc(C)cc1 | inconclusive [inhibitor, full curve, poor fit]
20 | CCOC(=O)C(NC(=O)CCl)(Nc1ccc(C(O)(C(=O)OCC)C(F)(F)F)cc1)C(F)(F)F (stereo unspecified) | inconclusive [inhibitor, single point]
21 | COC(=O)C1=C(c2ccc(F)cc2OCc2ccccc2)C[C@@H]2CC[C@H]1N2C(=O)NCCc1ccc(F)cc1 | active: 20.6 µM
